# Results: PubChem BioAssay AID686970 (National Center for Advancing Translational Sciences (NCATS), 2013)
# The whole screen tested about 360,000 compounds, of which about 6,000 (1.7%) were called active. The inconclusive results got no clear call from the source; some entries with a clear call stand among them for comparison. Calls come from the whole dose curve; as a rule, active = well fitted cell-killing curve with a large enough effect; inconclusive = small, poorly fitted or top-dose-only effect, or effect the other way; inactive = flat fitted curve, though single readings scatter. No potency is given beside an inconclusive call; the fits are too rough.
# Assay: qHTS for induction of synthetic lethality in tumor cells producing 2HG: qHTS for the HT-1080-NT fibrosarcoma cell line;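 note: NT is the 2HG producing partner of a matched IDH1 knockdown line; nearly all actives have a fitted effect of over 55% in size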;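 for activity, negative = less viability: 0% = DMSO-treated cells and -100% = media-only wells without cells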
# Details: HT-1080-NT fibrosarcoma viability, CellTiter-Glo ATP luminescence, 48 h; activity, negative = less viability: at 46.1 µM (top of the series) unless noted
# How it was run: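 Toxicity toward the 2HG-producing NT line was scored as %Activity, normalised to DMSO and no-cell wells, from CellTiter-Glo luminescence after 48 hours' treatment.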
# Potency is the fitted concentration of half-maximal effect; tags give direction and shape of the fitted curve.
SMILES,"activity, negative = less viability",Potency
Cc1nn(-c2ccccc2)c(C)c1NC(=O)COC(=O)Cc1ccccc1F,inactive: -0.282%,
CN(C)/C=C/C(=O)/C=C/c1ccc(Cl)cc1,,active: 11.6 µM
O=C1NC(SCCCF)=N/C1=C/c1ccc(-n2cncn2)cc1,inactive: 12.2%,
NC(C(=O)O)C1ON=C(Cl)C1O (centres undefined),,active: 20.6 µM
Cc1ccc(OCC(=O)Nc2ccc3c4c(cccc24)CC3)c(C)c1,inactive: 16.6%,
NC(N)=N/N=C(\N=Nc1ccccc1)c1ccc(Cl)cc1,,"inconclusive [cytotoxic, single point]"
O=c1[nH]c2cc3c(cc2cc1CN(Cc1ccco1)C(=S)NCC1CCCO1)OCCO3 (centres undefined),,"inconclusive [cytotoxic, partial curve]"
Cc1sc2ncnc(N3CCC(C(=O)Nc4ccc(OC(F)F)c(Cl)c4)CC3)c2c1C,inactive: -25.5%,
CN(C)Cc1csc(NC(=O)Nc2cccc(Cl)c2)n1,,"inconclusive [cytotoxic, partial curve]"
O=C1S/C(=C\c2ccc(N3CCOCC3)o2)C(=O)N1Cc1ccc(F)cc1,,active: 6.31 µM
CC12CCC(C(=O)N(CCC#N)CCC#N)(CC1=O)C2(C)C (centres undefined),,"inconclusive [cytotoxic, single point]"
C=CCNC(=S)N1CCN(c2ncc(C(F)(F)F)cc2Cl)CC1,inactive: -8.75%,
O=C(NNC(=O)c1ccncc1)Nc1ccc(Cl)cc1,inactive: 1.5%,
Cc1ccc(CC(=O)NCc2ccc(Cl)cc2)cc1,,active: 20.6 µM
O=[N+]([O-])c1cccc(OCCCN2CCC(Cc3ccccc3)CC2)c1,,"inconclusive [cytotoxic, single point]"
Cc1ccc(C(=O)CN2/C(=C(\O)c3ccccc3)C(=O)c3ccccc3S2(=O)=O)c(C)c1,,"inconclusive [cytotoxic, partial curve, poor fit]"
O=C(Nc1nc(-c2cccs2)cs1)C1=COCCO1,inactive: -6.27%,
Cc1ccccc1C(=O)N1c2ccccc2OCC1C(C)(C)C (centres undefined),inactive: -1.09%,
COc1ccc(Cl)cc1-c1cc(C(=O)NCc2cc(C(F)(F)F)cc(C(F)(F)F)c2)[nH]n1,,active: 20.6 µM
Cc1ccc(C(NC(=O)C(C)C)c2cc([N+](=O)[O-])c3cccnc3c2O)cc1 (centres undefined),,"inconclusive [cytotoxic, partial curve]"
COC(=O)[C@@]12C[C@@H](CC(=O)N3CCCC3)C(=O)N(Cc3cccc4ccccc34)C1=CCC(C)(C)C2,,"inconclusive [cytotoxic, single point]"
O=C(COc1ccc(S(=O)(=O)N2CCOCC2)cc1)NC1CCCCC1,inactive: 16.5%,
O=C(NC1CCCCC1)N1CCN(c2ccc(Cl)cc2)CC1,,"inconclusive [cytotoxic, single point]"
C[C@H]1CN(CCc2ccccc2)C(=O)[C@@H]1CC(=O)Nc1ccccc1,inactive: 4.91%,
Cc1ccc(-c2nnn(CC(=O)N(c3ccccc3F)C(C(=O)NCC3CCCO3)c3c[nH]c4ccccc34)n2)cc1 (centres undefined),inactive: -19.7%,

SMILES,"activity, negative = less viability",Potency
CN1CCN(c2ccc(Cl)cc2NC(=O)c2ccc(S(=O)(=O)N(C)C)cc2)CC1,inactive: -13.7%,
CCN(CC(=O)NCc1cccs1)C(=O)COc1ccc(C(N)=O)cc1,inactive: -2.58%,
CCCN(CCC)CCCNC(=O)c1cc2cc3ccc(OC)cc3nc2o1,,"inconclusive [cytotoxic, single point]"
O=C(NC1CCCCC1)C(c1ccc(F)cc1)N(CCN1CCOCC1)C(=O)c1ccc(-c2ccccc2)[nH]1 (centres undefined),inactive: 23.1%,
COc1ccc(CCNC(=O)C(=O)NCC2CCCN2S(=O)(=O)c2ccccc2)cc1 (centres undefined),,"inconclusive [cytotoxic, partial curve, poor fit]"
COc1ccc([N+](=O)[O-])cc1/C=N/NC(=O)c1nonc1N,,"inconclusive [cytotoxic, partial curve]"
CCOc1cc(CNn2cnnc2)cc(Br)c1OCC(=O)NC(C)(C)C,inactive: 1.67%,
CCN(CC)c1ccc(C(=O)N/N=C/c2ccc(OC)cc2OC)cc1,,"inconclusive [cytotoxic, single point]"
CN1CCN(c2ccc(C(=O)NC3CCCCC3)cc2[N+](=O)[O-])CC1,inactive: 1.05%,
Oc1ccc(Nc2nc(NCC3CCCO3)c3ccccc3n2)cc1 (centres undefined),,active: 20.6 µM
CCCOc1ccc(/C=N/NC(=S)Nc2ccccc2[N+](=O)[O-])c(O)c1,,active: 9.2 µM
CCCCc1ccc(NC(=O)CC(C)(C)C)cc1,,"inconclusive [cytotoxic, single point]"
C=CCNC(=O)c1oc2ccc(S(=O)(=O)N(CC)CC)cc2c1C,,"inconclusive [cytotoxic, single point]"
COc1cccc(-c2cc3nc4c(c(NCC(C)(C)CN(C)C)n3n2)CCCC4)c1,,"inconclusive [cytotoxic, single point]"
Cc1cc(C(O)c2ncc(-c3cccc4ccccc34)[nH]2)ccc1F (centres undefined),,"inconclusive [cytotoxic, single point]"
O=C(C[n+]1cccc2ccccc21)c1ccc(NC(=O)c2ccccc2)cc1,inactive: -8.94%,
O=C(CSc1ccccc1)Nc1ccc(C(=O)Nc2ccc(O)cc2)cc1,,"inconclusive [cytotoxic, single point]"
CCOC(=O)COc1ccc(C2NC(C(=O)O)CS2)cc1 (centres undefined),inactive: -1.33%,
Cc1ccc(Cc2cc(-c3ccc(C)cc3)n[nH]c2=O)cc1,,"inconclusive [cytotoxic, single point]"
CN(Cc1c(C(=O)N/N=C/c2ccccc2O)nnn1-c1nonc1N)C1CCCCC1,,active: 11.6 µM
CCOc1ccc(NS(=O)(=O)c2cc(NC(=O)c3cccc(C)c3)ccc2Cl)cc1,,"inconclusive [cytotoxic, partial curve]"
Cc1cc(Cl)ccc1C(O)c1ncc(-c2cccc3ccccc23)[nH]1 (centres undefined),,"inconclusive [cytotoxic, partial curve]"
CC(O)(c1ccc(F)c(F)c1)c1nc(-c2ccc(F)c(Cl)c2)cs1 (centres undefined),,active: 32.6 µM
O=C(NNc1ccc(Cl)cc1)C1CCC1,,"inconclusive [cytotoxic, full curve]"
